{"source": "PubChem BioAssay AID445", "about": "(National Center for Advancing Translational Sciences (NCATS), 2006)", "note": "Hit rate of the full screen: of about 110,000 compounds, about 40 (0.04%) were called active. This list was built around the results that the source calls inconclusive (neither active nor inactive); the mix of calls is not that of the screen. The call rests on the fitted dose curve; in most records, active means well fitted curve in the direction sought with a large enough effect in the signal ratio (not every such curve was filed as active); inconclusive means small, poorly fitted or top-dose-only effect, or a change in a side signal; inactive means flat fitted curve, though single readings scatter; the % refers to the signal ratio. A potency beside an inconclusive call is a rough fit, not a confirmed value. Potency means the concentration at half of the fitted maximal effect."}
{"assay": "IkB Signaling;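 on IkBa stabilization activation: 0% = basal untreated cells and 100% = reference inhibitor full response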", "details": "ABC-DLBCL IkBa-CBG/CBR dual luciferase ratio (green luciferase fused to IkBa over red control in OCI-Ly3 lymphoma cells), 4 h; IkBa stabilization activation: at 57.1 µM (top of the series), scaled: untreated 0%, proteasome inhibitor 100% unless noted", "how_it_was_run": "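Luminescence ratio of IκBα-fused green versus native red beetle luciferase in OCI-Ly3 cells, 4 h post-doxycycline with compound; red signal alone, scaled from basal (0%) to zero light (-100%), flagged nonspecific or cytotoxic effects.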"}
{"compound": "CCCCC(=O)Nc1ccc(Br)cc1C(=O)O", "Potency": "inconclusive: 12.6 µM [signal inhibitor, partial curve]"}
{"compound": "O=C1CC(Sc2ncccn2)C(=O)N1c1ccccc1C(F)(F)F", "note": "(centres undefined)", "IkBa stabilization activation": "inconclusive: 18.5% [signal inhibitor]"}
{"compound": "CCOC(=O)C(C)NC(=O)c1c2c(nc3ccccc13)C(=O)N(C1CCCCC1)C2", "note": "(centres undefined)", "IkBa stabilization activation": "inconclusive: 2.27% [signal inhibitor]"}
{"compound": "COc1cc(C(c2c(C)[nH][nH]c2=O)c2c(C)[nH][nH]c2=O)ccc1OC(=O)c1ccccc1OC", "IkBa stabilization activation": "inconclusive: 15.7% [signal inhibitor]"}
{"compound": "Oc1ccccc1-c1cc(-c2ccccc2Cl)[nH]n1", "Potency": "inconclusive: 39.8 µM [signal inhibitor, single point]"}
{"compound": "Nc1nsc2ccccc12", "IkBa stabilization activation": "inconclusive: 3.43% [signal inhibitor]"}
{"compound": "COc1ccccc1CNC(=O)Cn1cc2c(n1)-c1c(oc(C(=O)N3CCOCC3)c1C)CC2", "IkBa stabilization activation": "inconclusive: 1.26% [signal inhibitor]"}
{"compound": "COC(=O)c1sccc1S(=O)(=O)N(CC(=O)Nc1cccc(C)c1C)c1ccc(C)c(C)c1", "IkBa stabilization activation": "inconclusive: 0.497% [signal inhibitor]"}
{"compound": "CCc1ccc(-c2cn3nc(CC)sc3n2)cc1", "IkBa stabilization activation": "inactive: 73.1%"}
{"compound": "COC(=O)C1=C(CSCc2ccco2)NC(=O)NC1c1cc(C)ccc1C", "note": "(centres undefined)", "IkBa stabilization activation": "inconclusive: 4.18% [signal inhibitor]"}
{"compound": "COc1ccc(Cl)cc1N1CCN(CCNC(=O)Nc2ccccc2C)CC1", "IkBa stabilization activation": "inconclusive: 9.69% [signal inhibitor]"}
{"compound": "COc1ccc(Cn2c(CO)cnc2SCc2ccc(C)cc2)cc1", "IkBa stabilization activation": "inconclusive: 0.119% [signal inhibitor]"}
{"compound": "CC(C)(C)OC(=O)N1CCC(c2c(C(=O)N3CCN(Cc4ccccc4)CC3)cnn2-c2cccc(Cl)c2)CC1", "IkBa stabilization activation": "inconclusive: 0.66% [signal inhibitor]"}
{"compound": "CC(C)CCNC(=O)C1CCN(C(=O)c2cc3sccc3n2Cc2ccc(Cl)cc2)CC1", "IkBa stabilization activation": "inconclusive: 2.49% [signal inhibitor]"}
{"compound": "CCc1ccc(-n2nc(CO)c(C(=O)NC)n2)cc1", "IkBa stabilization activation": "inactive: -1.43%"}
{"compound": "COc1ccc(N(C)C(=O)CCC(=O)Nc2ccc3nc(N4CCOCC4)cc(C)c3c2)c(OC)c1", "IkBa stabilization activation": "inconclusive: 0.784% [signal inhibitor]"}
{"compound": "Cc1ccc(CS(=O)(=O)c2ncc(Cl)c(C(=O)Nc3nnc(C(C)C)s3)n2)cc1", "IkBa stabilization activation": "inactive: -0.209%"}
{"compound": "Cc1ccc2c(CC(=O)Nc3ccc(S(=O)(=O)N4CCCCC4)cc3)coc2c1C", "IkBa stabilization activation": "inconclusive: -0.854% [signal inhibitor]"}
{"compound": "Oc1c(C(c2ccc(F)cc2)N2CCN(Cc3ccccc3)CC2)sc2nc(-c3ccco3)nn12", "note": "(centres undefined)", "IkBa stabilization activation": "inconclusive: 6.85% [signal inhibitor]"}
{"compound": "c1ccc(-c2ccccc2-c2nc(-c3cccnc3)no2)cc1", "IkBa stabilization activation": "inconclusive: 0.198% [signal inhibitor]"}
{"compound": "CCN(CC)S(=O)(=O)c1ccc2[nH]cc(C(=O)NCCC3=CCCCC3)c(=O)c2c1", "IkBa stabilization activation": "inconclusive: -3.66% [signal inhibitor]"}
{"compound": "CN1C(=O)C2(c3ccccc31)N(c1cccc(C(F)(F)F)c1)C(=O)CS2(=O)=O", "note": "(centres undefined)", "IkBa stabilization activation": "inconclusive: 2.38% [signal inhibitor]"}
{"compound": "COc1ccc(Nc2nn3c(=O)c4cc5c(cc4nc3s2)OCO5)c(OC)c1", "IkBa stabilization activation": "inconclusive: 2.11% [signal inhibitor]"}
{"compound": "c1cn2cc(-c3ccc4c(c3)OCO4)nc2s1", "IkBa stabilization activation": "inactive: 0.0945%"}
{"compound": "Cc1cccc(N(C)S(=O)(=O)c2cc(-c3cnc(C4CC4)o3)ccc2C)c1", "IkBa stabilization activation": "inconclusive: 9.2% [signal inhibitor]"}
{"compound": "CCOc1ccc(/C=C/C(=O)Nc2ccc3nc(N(CC)CC)cc(C)c3c2)cc1OC", "IkBa stabilization activation": "inconclusive: -0.521% [signal inhibitor]"}
{"compound": "O=c1c(-c2ccc(Br)cc2)coc2c(CN3CCOCC3)c(O)ccc12", "IkBa stabilization activation": "inactive: -0.331%"}
{"compound": "CC(C)Cn1c(-c2ccc(Cl)cc2)cnc1SCC(=O)N1CCOCC1", "IkBa stabilization activation": "inconclusive: 5.39% [signal inhibitor]"}
{"compound": "CCc1ccc(C2c3c(-c4ccccc4O)n[nH]c3C(=O)N2Cc2cccnc2)cc1", "note": "(centres undefined)", "IkBa stabilization activation": "inconclusive: -0.438% [signal inhibitor]"}
{"compound": "CCCSc1nc2c(cnn2-c2ccccc2)c(=O)[nH]1", "IkBa stabilization activation": "inactive: -1.23%"}
{"compound": "Cc1cc(C)nc(SC(C)C(=O)Nc2ccc(S(N)(=O)=O)cc2)n1", "note": "(centres undefined)", "IkBa stabilization activation": "inactive: 0.0442%"}
{"compound": "CCOc1ccc(NC(=O)Cn2nc3c(cc2=O)CC(C)CC3)cc1", "note": "(centres undefined)", "IkBa stabilization activation": "inconclusive: 3.9% [signal inhibitor]"}
{"compound": "CC(C)Oc1ccc(C(=O)NCC(c2ccc(N(C)C)cc2)N2CCc3ccccc32)cc1", "note": "(centres undefined)", "IkBa stabilization activation": "inactive: 3.29%"}
{"compound": "COc1ccc2c(c1)CCc1c(-c3noc4c3CCc3cc(OC)ccc3-4)noc1-2", "IkBa stabilization activation": "inactive: -0.636% [at 11.4 µM, scaled: untreated 0%, proteasome inhibitor 100%]"}
{"compound": "O=C(CCSCCc1ccccn1)Nc1ccc(Cl)cc1", "IkBa stabilization activation": "inconclusive: 1.81% [signal inhibitor]"}
{"compound": "O=C(c1ccco1)N1CCC2(CCCN(c3ncccn3)C2)CC1", "IkBa stabilization activation": "inactive: 0.898% [at 11.4 µM, scaled: untreated 0%, proteasome inhibitor 100%]"}
{"compound": "Cc1ccc2c(C)c(C(=O)N(Cc3ccc(N(C)C)cc3)Cc3ccco3)oc2c1C", "IkBa stabilization activation": "inconclusive: 0.242% [signal inhibitor]"}
{"compound": "Cc1ccc(C)c(N2CCN(C(=O)c3ccc(Cn4c(=O)[nH]c5ccccc5c4=O)cc3)CC2)c1", "IkBa stabilization activation": "inconclusive: 2.87% [signal inhibitor]"}
{"compound": "CCCCCC(=O)Nc1cc(N(C)C)nc2ccccc12", "IkBa stabilization activation": "inconclusive: 0.896% [signal inhibitor]"}
{"compound": "COc1ccc2c(c1)c(N1CCCC1=O)c(C(=O)Nc1cc(C)c(Cl)cc1OC)n2C", "IkBa stabilization activation": "inconclusive: 3.29% [signal inhibitor]"}
{"compound": "Cc1ccc2c(c1)cc1c(=O)n(Cc3ccccc3Cl)nc(C)n12", "IkBa stabilization activation": "inconclusive: 0.412% [signal inhibitor]"}
{"compound": "C=CCn1c(SCC(=O)Nc2nc3ccccc3s2)nnc1-c1ccccc1O", "IkBa stabilization activation": "inconclusive: 0.761% [signal inhibitor]"}
{"compound": "CCn1nnc(NC(=O)c2ccc(C(C)(C)C)cc2)n1", "IkBa stabilization activation": "inactive: -1.67%"}
{"compound": "CN1CCN(c2nc3c(S(=O)(=O)c4ccc(Cl)cc4)nnn3c3ccsc23)CC1", "IkBa stabilization activation": "inconclusive: -1.09% [signal inhibitor]"}
{"compound": "COC(=O)c1cnn2c3c(c(C)nc12)CCCC3", "IkBa stabilization activation": "inactive: 1.1%"}
{"compound": "CC1(C)CC(=O)c2sc(NC(=O)CN3CCCCC3)nc2C1", "IkBa stabilization activation": "inactive: 0.859%"}
{"compound": "CCOC(=O)c1c(N)n(-c2ccc(CC)cc2)c2nc3ccccc3nc12", "IkBa stabilization activation": "inconclusive: 0.211% [signal inhibitor]"}
{"compound": "Cc1ccccc1N1CCN(S(=O)(=O)c2ccc3oc(=O)ccc3c2)CC1", "IkBa stabilization activation": "inconclusive: 5.75% [signal inhibitor]"}
{"compound": "Cc1sc2nc(CN3CCOCC3)nc(Oc3ccc(NC(=O)c4ccco4)cc3)c2c1C", "IkBa stabilization activation": "inactive: -0.234%"}
{"compound": "COc1nnc(-c2ccc(N3CCCCC3)c(NC(=O)c3ccc(C)cc3)c2)c2ccccc12", "IkBa stabilization activation": "inactive: 9.38%"}
{"compound": "CCOc1ccc(NC(=O)CCCn2c(C)c3cnn(-c4ccccc4)c(=O)c3c2C)cc1", "IkBa stabilization activation": "inconclusive: -0.883% [signal inhibitor]"}
{"compound": "CCn1nc(C)c2c(-c3ccccc3)cc(=O)n(C(C)C(=O)NCCc3ccc(Cl)cc3)c21", "note": "(centres undefined)", "IkBa stabilization activation": "inconclusive: 6.26% [signal inhibitor]"}
{"compound": "O=S(=O)(c1ccc(-c2cnc(C3CC3)o2)cc1)N1CCN(c2ccc(F)cc2)CC1", "IkBa stabilization activation": "inactive: 0.568%"}
{"compound": "Cc1ccc2nc(-c3cccc(NC(=O)c4ccco4)c3)[nH]c2c1", "IkBa stabilization activation": "inconclusive: 5.82% [signal inhibitor]"}
{"compound": "c1ccc(-c2cccc(N3CCCC4(CCNCC4)C3)c2)cc1", "IkBa stabilization activation": "inactive: -2.35% [at 11.4 µM, scaled: untreated 0%, proteasome inhibitor 100%]"}
{"compound": "CCOC(=O)Cc1ccc(NC(=O)NC(C)c2c(-n3cccc3)sc(C)c2C)cc1", "note": "(centres undefined)", "IkBa stabilization activation": "inconclusive: -1.07% [signal inhibitor]"}
{"compound": "Cc1cc2oc(=O)c(CC(=O)O)c(C)c2c2occ(-c3ccccc3)c12", "IkBa stabilization activation": "inconclusive: 1.68% [signal inhibitor]"}
{"compound": "Cc1ccc(C)c(Cn2c(=O)n(-c3ccccc3)c(=O)c3c4c(sc32)CCCC4)c1", "IkBa stabilization activation": "inactive: 1.52%"}
{"compound": "COc1cc(-n2c(=O)c3ccccc3n(Cc3cccc(Cl)c3)c2=O)cc(OC)c1OC", "IkBa stabilization activation": "inactive: 17.4%"}
{"compound": "CCc1ccc2oc(-c3cc(NC(=O)c4cc(OC)c(OC)c(OC)c4)ccc3O)nc2c1", "IkBa stabilization activation": "inconclusive: -0.214% [signal inhibitor]"}
{"compound": "CCOc1ccc2[nH]c(=O)c(C(c3nnnn3Cc3ccco3)N3CCC(C)CC3)cc2c1", "note": "(centres undefined)", "IkBa stabilization activation": "inconclusive: 3.36% [signal inhibitor]"}
{"compound": "O=C1OC(=O)c2ccccc21", "IkBa stabilization activation": "inactive: -0.145%"}
{"compound": "O=[N+]([O-])c1ccc2c(N=Nc3ccc4ccccc4c3O)c(O)cc(S(=O)(=O)O)c2c1", "IkBa stabilization activation": "inactive: 2.6% [at 11.4 µM, scaled: untreated 0%, proteasome inhibitor 100%]"}
{"compound": "CC(=O)c1ccc(NC(=O)CSc2nc(=O)n(Cc3ccccn3)c3c2CCC3)cc1", "IkBa stabilization activation": "inconclusive: -0.4% [signal inhibitor]"}
{"compound": "COc1cccc(-c2cn3c(n2)sc2cc(C(=O)NC4CCCCC4)ccc23)c1", "IkBa stabilization activation": "inconclusive: 0.988% [signal inhibitor]"}
{"compound": "CC(C)C(c1nnnn1C1CCCC1)N1c2ccccc2CC1C", "note": "(centres undefined)", "IkBa stabilization activation": "inconclusive: 11.9% [signal inhibitor]"}
{"compound": "CCN(CCCNC(=O)c1cc2c(=O)n(C)c3ccccc3c2s1)c1ccccc1", "IkBa stabilization activation": "inactive: 1.63%"}
{"compound": "COc1cc(NC(=O)C2CCN(c3cnccn3)CC2)cc(OC)c1", "IkBa stabilization activation": "inconclusive: 1.14% [signal inhibitor]"}
{"compound": "CCCCSc1nc2c(cnn2-c2ccc(Cl)cc2)c(=O)[nH]1", "IkBa stabilization activation": "inactive: 0.287%"}
